The values that follow come from publication PMC13083723 (Patterns, 2026).

Structures are written as SMILES. Among all 5,400 compounds or so, about 190 (3.5%) showed an effect of 50% or more. The list shows a part of the results. Residues, ends and D or L forms follow the SMILES beside them.

In the test the test system is Vero-E6. Kind of test: primary screen, phospholipidosis by LipidTOX staining; higher = more effect of the substance. As to conditions: 10 µM. The essentials: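 Single-concentration screen at 10 μM, with DMSO 0.1 v/v % and amiodarone 10 μM as controls. Read-out is LipidTOX Red phospholipid staining, which tolerates aldehyde fixation, in Vero-E6 cells.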
Consider `COC(=O)/C=C/C(=O)OCCN1C(=O)CCC1=O`, for which the result_ITMP is given as -4.7%. To `Cn1ncc2c(N3CCOCC3)nc(-c3cccc(O)c3)nc21` belongs -4.96%; to `C[C@@H](O)[C@H](N)C(=O)N1CCC[C@H]1C(=O)N1CCC[C@H]1C(=O)N[C@H](C(N)=O)[C@@H](C)O` (H-TPPT-NH2), -1.7%.

On to `COc1cccc2c1C(=O)c1c(O)c3c(c(O)c1C2=O)C[C@@](O)(C(=O)CO)C[C@@H]3O[C@H]1C[C@H](N)[C@@H](O)[C@H](C)O1`, for which the result_ITMP was found to be 4.45%. Next, `CN[C@@H]1Cc2cccc3nc(O)n(c23)C1`: 5.61%; `CCCN(CCC)CCc1cccc2c1CC(=O)N2`: 5.76%.

Turning to `O[C@H]1[C@H](O)[C@@H](O)[C@H](O)[C@@H](O)[C@H]1O`, the result_ITMP is given as -4.17%.

For `CCN1CCN(C(=O)NC(C(=O)NC2C(=O)N3C(C(=O)O)=C(CSc4nnnn4C)CSC23)c2ccc(O)cc2)C(=O)C1=O` (stereo not drawn), the result_ITMP is recorded as -3.65%. Regarding `C=C(C)[C@@H]1CC[C@]2(CO)CC[C@]3(C)[C@H](CC[C@@H]4[C@@]5(C)CC[C@H](O)C(C)(C)[C@@H]5CC[C@]43C)[C@@H]12`, the result_ITMP is on record as -4.87%. To `COC(=O)C[C@](O)(CCCC(C)(C)O)C(=O)O[C@@H]1C(OC)=C[C@]23CCCN2CCc2cc4c(cc2[C@H]13)OCO4` belongs -2.84%. To `C[C@@H]1[C@H](O)[C@@H](C)/C=C/C=C/C=C/C=C/C=C/C=C/C=C/[C@H](O[C@@H]2O[C@H](C)[C@@H](O)[C@H](N)[C@@H]2O)C[C@@H]2O[C@](O)(C[C@@H](O)C[C@@H](O)[C@H](O)CC[C@@H](O)C[C@@H](O)CC(=O)O[C@H]1C)C[C@H](O)[C@H]2C(=O)O` belongs 0.23%; to `O=C(/C=C/c1c(C(=O)[O-])[nH]c2cc(Cl)cc(Cl)c12)Nc1ccccc1`, 0.43%. As to `CNCCc1ccc(O)c(O)c1`, the result_ITMP is recorded as 0.38%.

Turning to `O=C(CCNNC(=O)c1ccncc1)NCc1ccccc1`, the result_ITMP is reported as 3.95%. For the compound `Fc1ccccc1CNCc1ccc(-c2ccnc3[nH]ccc23)cc1`, the result_ITMP came out at 10.7%. Next, `Cc1cnc(-c2ccccc2C(C)C)nc1NCc1ccc(-n2ccnn2)cc1`: -1.95%; `Cc1ccc(=O)n(-c2ccc(O)cc2)c1`: -2.59%; `Cc1ccccc1N1CCN(CCc2nnc3n2CCCC3)CC1`: -0.76%. Next, `CSc1nc2cc(Cl)c(Oc3cccc(Cl)c3Cl)cc2[nH]1`: -2.53%.

On to `Cc1nc2ccccn2c(=O)c1CCN1CCC(C(=O)c2ccc(F)cc2)CC1`, for which the result_ITMP is given as -6.13%. With `Nc1ccc(-c2ccc3ncc4ccc(=O)n(-c5cccc(C(F)(F)F)c5)c4c3c2)cn1`, the result_ITMP was determined as 9.27%. Next, `N#C/C(=C1/SCC(c2ccccc2Cl)S1)n1ccnc1` (stereo not drawn): 0.65%.

In the case of `COc1ccc2[n-]c([S@@](=O)Cc3ncc(C)c(OC)c3C)nc2c1`, the result_ITMP is on record as -8.87%.

As for `CCCCC[C@H](O)/C=C/[C@H]1[C@H](O)CC(=O)[C@@H]1C/C=C\CCCC(=O)O`, the result_ITMP was -1.87%. On to `Cn1cnc2c(F)c(Nc3ccc(Br)cc3F)c(C(=O)NOCCO)cc21`, for which the result_ITMP came to 12.3%. Next, `C#Cc1cccc(Nc2ncnc3cc(OCCOC)c(OCCO)cc23)c1`: 20.2%; `CC[C@H](CC#N)OC(=O)N[C@@H](C)c1cccc(NC(=O)Nc2ccc(-c3cnco3)c(OC)c2)c1`: -2.01%. Take `Nc1nc(N)c(N=O)c(OCC2CCCCC2)n1`: the result_ITMP is reported as -4.05%.

On to `CO[C@@H]1[C@H](OC(=O)/C=C/C=C/C=C/C=C/C(=O)O)CC[C@]2(CO2)[C@H]1[C@@]1(C)O[C@@H]1CC=C(C)C`, for which the result_ITMP turned out to be 10.7%. Next, `NC(=O)c1cnccn1`: -3.14%; `CC(C)(C)CC(C)(C)c1cc(Cc2cc(C(C)(C)CC(C)(C)C)cc(-n3nc4ccccc4n3)c2O)c(O)c(-n2nc3ccccc3n2)c1`: 9.42%; `FC(F)(F)c1cc(NC(=S)Nc2ccc(Br)cc2-c2nnn[nH]2)cc(C(F)(F)F)c1`: -0.44%. Consider `NCCCC[C@H](NC(=O)[C@@H](Cc1cc(Br)c(O)c(Br)c1)NC(=O)N1CCC(N2Cc3ccccc3NC2=O)CC1)C(=O)N1CCN(c2ccncc2)CC1`, for which the result_ITMP worked out at 0.57%. Next, `Cc1ccc(NC(=O)C2(c3ccc4c(c3)OC(F)(F)O4)CC2)nc1-c1cccc(C(=O)O)c1`: -7.5%. To `Nc1nc(=O)n([C@H]2C[C@H](O)[C@@H](CO)O2)cc1Cl` belongs -4.04%; to `CNC(=O)c1ccc(Nc2ncc(C(F)(F)F)c(NCc3nccnc3N(C)S(C)(=O)=O)n2)cc1`, 1.87%; to `CCOC(=O)[C@@H](N)CCC(=O)N[C@@H](CSCc1ccccc1)C(=O)N[C@@H](C(=O)OCC)c1ccccc1`, -1.89%.

For the compound `Cc1c(O)c(=O)n(-c2ccccc2)n1C`, the result_ITMP was -4.93%. With `C=C1CC/C=C(\C)CC[C@@H]2[C@@H]1CC2(C)C`, the result_ITMP is on record as -2.44%. As to `CC(C)OC(=O)C(C)(C)Oc1ccc(C(=O)c2ccc(Cl)cc2)cc1`, the result_ITMP is listed as 0.11%. Next, `OCCOc1ccc(/C(=C(/CCCl)c2ccccc2)c2ccccc2)cc1`: -2.96%; `COc1cc2c(NC3CCN(C)CC3)nc(N3CCCN(C)CC3)nc2cc1OCCCN(C)C`: -1.66%. Next, `NS(=O)(=O)c1ccc(S(=O)(=O)Nc2cccc3c(Cl)c[nH]c23)cc1`: 5.99%.

On to `CCN(CC)CCOc1ccc(Nc2ncc3cc(-c4c(Cl)cccc4Cl)c(=O)n(C)c3n2)cc1`, for which the result_ITMP is given as 24.2%. Turning to `CCn1c(-c2nonc2N)nc2c(C#CC(C)(C)O)ncc(OC[C@H]3CCCNC3)c21`, the result_ITMP is reported as -4.28%. On to `COc1cc(N)c(Cl)cc1C(=O)N[C@@H]1CCN(CCCOc2ccc(F)cc2)C[C@@H]1OC` (racemic), for which the result_ITMP is recorded as 6.26%.

On to `NC(=O)CC[C@H](N)C(=O)O`, for which the result_ITMP is -2.87%. For `O=C1c2ccccc2C(=O)C1c1ccc(Br)cc1`, the result_ITMP is -6.58%. To `Cc1cc2c(s1)Nc1ccccc1N=C2N1CCN(C)CC1` belongs -8.9%; to `Cc1cc(C(=O)O)sc1C(N)C(=O)O` (stereo not drawn), 0.29%.

In the case of `NC(=O)C(c1ccccc1)(c1ccccc1)C1CCN(CCc2ccc3c(c2)CCO3)C1` (stereo not drawn), the result_ITMP is 22.4%. For `Cn1c(-c2ccccc2)nnc1S(C)(=O)=O`, the result_ITMP was -3.26%. Next, `CN1C(=O)C(Cc2c[nH]c3ccccc23)NC1=S` (stereo not drawn): -3.91%. Next, `CCC[C@H](N[C@H]1CCc2cc(F)cc(F)c2C1)C(=O)Nc1cn(C(C)(C)CNCC(C)(C)C)cn1`: 2.75%. Consider `CCOC(=S)SSC(=S)OCC`, for which the result_ITMP is given as -5.5%.

Take `C/C(=C\c1csc(C)n1)[C@@H]1C[C@@H]2O[C@]2(C)CCC[C@H](C)[C@H](O)[C@@H](C)C(=O)C(C)(C)[C@@H](O)CC(=O)O1`: the result_ITMP came to 6.43%. Next, `Oc1cccc(O)c1`: -3.42%; `C[C@@H](O[C@H]1OCCN(Cc2n[nH]c(=O)[nH]2)[C@H]1c1ccc(F)cc1)c1cc(C(F)(F)F)cc(C(F)(F)F)c1`: 2.55%. To `O=C(NCCCCN1CCN(c2cccc(Cl)c2Cl)CC1)c1ccc2c(c1)Cc1ccccc1-2` belongs 24.3%; to `CC(Cc1ccc(O)cc1)NCC(O)c1cc(O)cc(O)c1` (stereo not drawn), -1.14%; to `CCCCN(CCCC)CC(O)c1cc(Cl)cc2c1-c1ccc(Cl)cc1/C2=C/c1ccc(Cl)cc1` (stereo not drawn), -0.63%.

As to `Cc1cn(-c2cc(NC(=O)c3ccc(C)c(Nc4nccc(-c5cccnc5)n4)c3)cc(C(F)(F)F)c2)cn1`, the result_ITMP is -4.08%. Regarding `CC1(C)CCC(C)(C)c2c1cc(C(=O)Nc1cc(F)c(C(=O)O)c(F)c1)c(O)c2Cl`, the result_ITMP is -2.47%. To `Cc1cc(O)cc(C)c1Cl` belongs -1.23%; to `CCCNC(=O)Nc1ccc(Oc2ncnc3cc(OC)c(OC)cc23)cc1Cl`, -5.8%.

On to `COC(=O)CCC(=O)CN`, for which the result_ITMP was -4.09%. Regarding `O=C(NCc1ccccn1)Nc1nnc(-c2ccco2)o1`, the result_ITMP is recorded as -4.85%.

Take `CN(C)C(=O)C(=O)c1cn(C)c2cc(Cl)c(C(=O)N3CCC(Cc4ccc(F)cc4)CC3)cc12`: the result_ITMP is -2.38%. To `Cc1cc(N2CCOCC2)ccc1Nc1nc(NC2CCCCC2)c2nc[nH]c2n1` belongs 0.21%. Take `C/C=C/c1cc(OC)c(OC)cc1OC`: the result_ITMP is recorded as -1.85%. Next, `O=C(O)c1ccccc1S`: -3.45%; `CCN1C[C@H](C)n2c(c(O)c3c(=O)n(Cc4ccc(F)c(Cl)c4)nc(C(=O)NC)c32)C1=O`: -3.06%. Consider `O=C(O)CC/C=C\C[C@@H]1CO[C@H](c2ccccc2Cl)O[C@@H]1c1ccccc1O` (racemic), for which the result_ITMP is -1.11%. `COc1ccc2cc(C(C)C(=O)Oc3ccc(C(N)=S)cc3)ccc2c1` (stereo not drawn): the result_ITMP is -1.47%.

With `CC(=O)c1c(C)c2cnc(Nc3ccc(N4CCNCC4)cn3)nc2n(C2CCCC2)c1=O`, the result_ITMP came out at 36.4%.

`C1CCc2nnnn2CC1`: the result_ITMP is given as -7.15%. Turning to `C[C@]12C=CC(=O)N[C@@H]1CC[C@@H]1[C@@H]2CC[C@]2(C)[C@@H](C(=O)Nc3cc(C(F)(F)F)ccc3C(F)(F)F)CC[C@@H]12`, the result_ITMP is -3.63%.

On to `Clc1ccc2c(N3CCN(CCCN4CCN(c5ccnc6cc(Cl)ccc56)CC4)CC3)ccnc2c1`, for which the result_ITMP is 6.97%. With `Cc1ccccc1-n1c(CF)nc2ccc(N)cc2c1=O`, the result_ITMP was -2.2%.

For `CC(C)(C)c1ccc(S(=O)(=O)/C=C/C#N)cc1`, the result_ITMP is -2.64%.

As for `COc1nccnc1NS(=O)(=O)c1ccc(N)cc1`, the result_ITMP was found to be 4.24%. Next, `CC[C@H]1[C@@H](O)C2C3CC[C@H]([C@H](C)CCC(=O)O)[C@@]3(C)CCC2[C@@]2(C)CC[C@@H](O)C[C@@H]12` (stereo partly drawn): -3.95%; `CC(N)CCCC(C)(C)O` (stereo not drawn): -8.75%. On to `N#CCC(=O)NN`, for which the result_ITMP is given as -6.26%.

As for `CN1CCCN=C1/C=C/c1cccc(O)c1`, the result_ITMP stood at 4.3%. Regarding `CC(C)N(CCCCOCC(=O)NS(C)(=O)=O)c1cnc(-c2ccccc2)c(-c2ccccc2)n1`, the result_ITMP is recorded as 0.15%. Next, `CCOC(=O)C1CSC(Cc2ccc(OCc3ccc([N+](=O)[O-])cc3)cc2)N1` (stereo not drawn): -2.45%.
